The supplement of paper PMC8728848
Some of the results follow.

How the values were obtained:
Assay in all cases: glycan array binding signal (z-score within array); higher = stronger binding
Settings in all cases: glycan notation: IUPAC condensed, linker removed
[1] = biological target: Gal3S(b1-4)[Fuc(a1-3)]GlcNAc
In short: (§1)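 The Consortium for Functional Glycomics database supplied 3228 glycan arrays, of which those lacking an available protein sequence were dropped. The binding signal, a within-array Z-score, was averaged across arrays of the same protein sequence and across linkers. Negative scores can be read as non-binding.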

[2] = biological target: Gal3S(b1-4)[Fuc(a1-3)]GlcNAc6S
In short: as §1

Gal3S4S(b1-4)GlcNAc = biological target: Gal3S4S(b1-4)GlcNAc
In short: as §1

Gal3S6S(b1-4)GlcNAc = biological target: Gal3S6S(b1-4)GlcNAc
In short: as §1

Gal3S6S(b1-4)GlcNAc6S = biological target: Gal3S6S(b1-4)GlcNAc6S
In short: as §1

Gal4S(b1-4)GlcNAc = biological target: Gal4S(b1-4)GlcNAc
In short: as §1

Gal4S6S(b1-4)GlcNAc = biological target: Gal4S6S(b1-4)GlcNAc
In short: as §1

Gal6P(b1-4)GlcNAc = biological target: Gal6P(b1-4)GlcNAc
In short: as §1

Gal6S(b1-3)GlcNAc = biological target: Gal6S(b1-3)GlcNAc
In short: as §1

Gal6S(b1-3)GlcNAc6S = biological target: Gal6S(b1-3)GlcNAc6S
In short: as §1

Gal6S(b1-4)Glc = biological target: Gal6S(b1-4)Glc
In short: as §1

Gal6S(b1-4)Glc6S = biological target: Gal6S(b1-4)Glc6S
In short: as §1

Gal6S(b1-4)GlcNAc = biological target: Gal6S(b1-4)GlcNAc
In short: as §1

Gal6S(b1-4)GlcNAc6S = biological target: Gal6S(b1-4)GlcNAc6S
In short: as §1

GalNAc(a1-3)Gal = biological target: GalNAc(a1-3)Gal
In short: as §1

GalNAc(a1-3)GalNAc = biological target: GalNAc(a1-3)GalNAc
In short: as §1

[3] = biological target: GalNAc(a1-3)GalNAc(b1-3)Gal(a1-4)Gal(b1-4)Glc
In short: as §1

[4] = biological target: GalNAc(a1-3)GalNAc(b1-3)Gal(a1-4)Gal(b1-4)GlcNAc
In short: as §1

GalNAc(b1-3)Gal = biological target: GalNAc(b1-3)Gal
In short: as §1

[5] = biological target: GalNAc(b1-3)Gal(a1-4)Gal(b1-4)GlcNAc
In short: as §1

[6] = biological target: GalNAc(b1-3)Gal(a1-4)Gal(b1-4)GlcNAc(b1-3)Gal(b1-4)Glc
In short: as §1

[7] = biological target: GalNAc(b1-3)Gal(a1-6)Gal(b1-4)Glc
In short: as §1

GalNAc(b1-3)GalNAc = biological target: GalNAc(b1-3)GalNAc
In short: as §1

GalNAc(b1-3)GlcNAc = biological target: GalNAc(b1-3)GlcNAc
In short: as §1

GalNAc(b1-4)Gal(b1-4)Glc = biological target: GalNAc(b1-4)Gal(b1-4)Glc
In short: as §1

GalNAc(b1-4)GlcNAc = biological target: GalNAc(b1-4)GlcNAc
In short: as §1

[8] = biological target: GalNAc(b1-4)GlcNAc(b1-2)Man
In short: as §1

[9] = biological target: GalNAc(b1-4)GlcNAc(b1-2)Man(a1-3)[GalNAc(b1-4)GlcNAc(b1-2)Man(a1-6)]Man(b1-4)GlcNAc(b1-4)GlcNAc
In short: as §1

[10] = biological target: GalNAc(b1-4)GlcNAc(b1-3)GalNAc(b1-4)GlcNAc
In short: as §1

GalNAc(b1-4)GlcNAc6S = biological target: GalNAc(b1-4)GlcNAc6S
In short: as §1

GalNAc(b1-6)GalNAc = biological target: GalNAc(b1-6)GalNAc
In short: as §1

GalNAc3S(b1-4)GlcNAc = biological target: GalNAc3S(b1-4)GlcNAc
In short: as §1

GalNAc3S(b1-4)GlcNAc3S = biological target: GalNAc3S(b1-4)GlcNAc3S
In short: as §1

[11] = biological target: GalNAc3S(b1-4)[Fuc(a1-3)]GlcNAc
In short: as §1

GalNAc4S6S(b1-4)GlcNAc = biological target: GalNAc4S6S(b1-4)GlcNAc
In short: as §1

GalNAc6S(b1-4)GlcNAc = biological target: GalNAc6S(b1-4)GlcNAc
In short: as §1

Glc(a1-4)Glc = biological target: Glc(a1-4)Glc
In short: as §1

B1: MGL1 (Mus musculus), P49300 (protein)
chain: MIYENLQNSRIEEKTQEPGKAPSQSFLWRILSWTHLLLFSLGLSLLLLVVVSVIGSQNSQLRRDLGTLRATLDNTTSKIKAEFQSLDSRADSFEKGISSLKVDVEDHRQELQAGRDLSQKVTSLESTVEKREQALKTDLSDLTDHVQQLRKDLKALTCQLANLKNNGSEVACCPLHWTEHEGSCYWFSESEKSWPEADKYCRLENSHLVVVNSLEEQNFLQNRLANVVSWIGLTDQNGPWRWVDGTDFEKGFKNWAPLQPDNWFGHGLGGGEDCAHITTGGPWNDDVCQRTFRWICEMKLAKES
glycan array binding signal (z-score) [1]: 0.62
glycan array binding signal (z-score) [2]: -0.256
glycan array binding signal (z-score) (Gal3S4S(b1-4)GlcNAc): -0.004
glycan array binding signal (z-score) (Gal3S6S(b1-4)GlcNAc): -0.223
glycan array binding signal (z-score) (Gal3S6S(b1-4)GlcNAc6S): 0.075
glycan array binding signal (z-score) (Gal4S(b1-4)GlcNAc): 0.622
glycan array binding signal (z-score) (Gal4S6S(b1-4)GlcNAc): 0.176
glycan array binding signal (z-score) (Gal6P(b1-4)GlcNAc): -1.1
glycan array binding signal (z-score) (Gal6S(b1-3)GlcNAc): 0.178
glycan array binding signal (z-score) (Gal6S(b1-3)GlcNAc6S): -0.077
glycan array binding signal (z-score) (Gal6S(b1-4)Glc): 0.208
glycan array binding signal (z-score) (Gal6S(b1-4)Glc6S): -0.092
glycan array binding signal (z-score) (Gal6S(b1-4)GlcNAc): -0.609
glycan array binding signal (z-score) (Gal6S(b1-4)GlcNAc6S): -0.187
glycan array binding signal (z-score) (GalNAc(a1-3)Gal): -0.063
glycan array binding signal (z-score) (GalNAc(a1-3)GalNAc): -0.786
glycan array binding signal (z-score) [3]: -0.481
glycan array binding signal (z-score) [4]: -0.615
glycan array binding signal (z-score) (GalNAc(b1-3)Gal): -0.448
glycan array binding signal (z-score) [5]: 0.475
glycan array binding signal (z-score) [6]: -0.339
glycan array binding signal (z-score) [7]: -0.397
glycan array binding signal (z-score) (GalNAc(b1-3)GalNAc): -0.31
glycan array binding signal (z-score) (GalNAc(b1-3)GlcNAc): -0.924
glycan array binding signal (z-score) (GalNAc(b1-4)Gal(b1-4)Glc): -0.519
glycan array binding signal (z-score) (GalNAc(b1-4)GlcNAc): 0.054
glycan array binding signal (z-score) [8]: -0.244
glycan array binding signal (z-score) [9]: 0.218
glycan array binding signal (z-score) [10]: -1.05
glycan array binding signal (z-score) (GalNAc(b1-4)GlcNAc6S): 0.045
glycan array binding signal (z-score) (GalNAc(b1-6)GalNAc): -0.374
glycan array binding signal (z-score) (GalNAc3S(b1-4)GlcNAc): -0.099
glycan array binding signal (z-score) (GalNAc3S(b1-4)GlcNAc3S): -0.361
glycan array binding signal (z-score) [11]: -0.178
glycan array binding signal (z-score) (GalNAc4S6S(b1-4)GlcNAc): -0.581
glycan array binding signal (z-score) (GalNAc6S(b1-4)GlcNAc): 0.509
glycan array binding signal (z-score) (Glc(a1-4)Glc): -0.443
